Test results: article PMC4336329 (PLoS ONE, 2015)
The campaign covered roughly 310,000 compounds. About 2,200 (0.71%) showed an effect of 50% or more. The effect is printed as a negative number. This is one part of the list.

What follows are molecules tested against human ether-à-go-go-related gene (hERG) potassium channel (human, UniProt Q12809) (assay: primary screen, population patch clamp on CHO cells stably expressing hERG).
Sequence of human ether-à-go-go-related gene (hERG) potassium channel (Q12809 whole entry, looked up): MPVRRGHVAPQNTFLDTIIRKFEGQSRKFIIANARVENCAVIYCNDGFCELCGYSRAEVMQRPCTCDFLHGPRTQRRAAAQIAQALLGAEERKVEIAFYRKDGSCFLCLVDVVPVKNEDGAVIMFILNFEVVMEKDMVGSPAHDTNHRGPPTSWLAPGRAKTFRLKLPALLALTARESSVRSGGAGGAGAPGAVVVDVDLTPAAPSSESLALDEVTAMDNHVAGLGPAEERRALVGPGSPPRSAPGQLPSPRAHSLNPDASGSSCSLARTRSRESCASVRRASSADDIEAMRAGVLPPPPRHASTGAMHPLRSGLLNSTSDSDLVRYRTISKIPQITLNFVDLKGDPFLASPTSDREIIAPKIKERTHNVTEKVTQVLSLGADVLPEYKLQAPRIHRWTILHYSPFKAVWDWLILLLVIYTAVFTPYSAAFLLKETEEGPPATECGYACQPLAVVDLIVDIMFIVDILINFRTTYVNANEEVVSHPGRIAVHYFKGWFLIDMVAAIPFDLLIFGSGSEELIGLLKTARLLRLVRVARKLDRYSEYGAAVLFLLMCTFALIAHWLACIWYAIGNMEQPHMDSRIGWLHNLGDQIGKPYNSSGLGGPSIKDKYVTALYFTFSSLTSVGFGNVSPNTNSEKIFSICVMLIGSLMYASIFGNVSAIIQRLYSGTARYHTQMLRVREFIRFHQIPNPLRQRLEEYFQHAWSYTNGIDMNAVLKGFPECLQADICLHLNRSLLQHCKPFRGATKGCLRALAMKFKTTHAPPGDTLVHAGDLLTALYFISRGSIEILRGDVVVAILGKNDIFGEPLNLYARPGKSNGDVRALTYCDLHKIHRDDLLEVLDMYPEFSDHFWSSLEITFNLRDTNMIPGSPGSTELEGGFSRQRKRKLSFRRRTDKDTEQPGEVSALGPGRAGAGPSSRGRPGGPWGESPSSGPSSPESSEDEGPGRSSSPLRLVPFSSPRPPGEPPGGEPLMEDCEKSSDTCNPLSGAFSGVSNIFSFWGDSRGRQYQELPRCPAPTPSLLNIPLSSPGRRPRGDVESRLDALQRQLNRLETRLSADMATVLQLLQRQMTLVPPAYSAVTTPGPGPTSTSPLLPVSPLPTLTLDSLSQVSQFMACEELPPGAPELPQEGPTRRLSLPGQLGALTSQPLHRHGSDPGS
COc1ccc2c(=O)c3c(=O)n(-c4ccc(C)cc4)c(-c4ccccc4)nc3oc2c1 was tested, and the “hERG current change (%, negative = inhibition) at 1uM” value was 15.3%. In the case of CCC(C)[C@H](NC(=O)Nc1ccccc1F)C(=O)O (stereo partly drawn), the “hERG current change (%, negative = inhibition) at 1uM” value was 8.49%. In the case of CC1CC(C)CN(CCCNC(=O)Cn2ncn3cccc3c2=O)C1 (stereo not drawn), the “hERG current change (%, negative = inhibition) at 1uM” value was -0.368%. In the case of CCOC(=O)N1CCN(S(=O)(=O)c2ccc(OC)c(Br)c2)CC1, the “hERG current change (%, negative = inhibition) at 1uM” value was 5.8%. With CN(C)N1C(N)=C(C#N)C(c2cccc(Cl)c2)C2=C1CCCC2=O (stereo not drawn) the “hERG current change (%, negative = inhibition) at 1uM” value was 7.91%. With Cc1ccc(C)c(NC(NC(=O)c2ccccn2)C(Cl)(Cl)Cl)c1 (stereo not drawn) the “hERG current change (%, negative = inhibition) at 1uM” value was 10.3%. Cl.Fc1ccc(C(c2nnnn2C2CCCC2)N2CCN(Cc3ccncc3)CC2)cc1 (stereo not drawn) was tested, and the “hERG current change (%, negative = inhibition) at 1uM” value was -2.22%. CNC(=S)N(CCc1c(C)[nH]c2ccc(C)cc12)Cc1cccnc1 was tested, and the “hERG current change (%, negative = inhibition) at 1uM” value was -5.65%. With C#CCOCCOCCOCCNc1nc(N2CCN(C(=O)CCCCCCCCCCNC(=O)[C@H](CCCCN)n3cc(C[C@@H](C)CC)nn3)CC2)nc(N2CCN(C(=O)CCCCCCCCCCNC(=O)[C@@H]([C@H](C)O)n3cc(C)nn3)CC2)n1 the “hERG current change (%, negative = inhibition) at 1uM” value was 9.17%. For CC1CCCC(C)N1CCCNC(=O)c1csc2c1CCCCC2 (stereo not drawn), the “hERG current change (%, negative = inhibition) at 1uM” value was -13.5%. Cc1cc[n+](CC(=O)c2ccc(NC(=O)c3ccccc3)cc2)c2ccccc12.[Br-] was tested, and the “hERG current change (%, negative = inhibition) at 1uM” value was 13%. COC(=O)c1ccc(-c2c(-c3ccccc3)ncc3cc(F)ccc23)cc1 was tested, and the “hERG current change (%, negative = inhibition) at 1uM” value was 13.3%. In the case of COc1cccc(C(=O)Nc2ncc3c(n2)CC(C)CC3=O)c1 (stereo not drawn), the “hERG current change (%, negative = inhibition) at 1uM” value was 16.5%. In the case of CCOC(=O)c1[nH]nc(-c2c(O)cc(C)cc2O)c1-c1csc(C)n1, the “hERG current change (%, negative = inhibition) at 1uM” value was 13.4%. In the case of Nc1nc2ccccc2n1CCN1CCCC1, the “hERG current change (%, negative = inhibition) at 1uM” value was 9.69%. Cc1cnc(C(=O)Nc2ccccc2C(=O)N2CCOCC2)cn1 was tested, and the “hERG current change (%, negative = inhibition) at 1uM” value was 14.9%. NS(=O)(=O)c1ccc(CNS(=O)(=O)c2cccc3nonc23)cc1 was tested, and the “hERG current change (%, negative = inhibition) at 1uM” value was 15.7%. With COc1ccc(NC(=O)CNC(=O)Cn2ccc3ccccc3c2=O)c(OC)c1 the “hERG current change (%, negative = inhibition) at 1uM” value was 13.3%. With CCc1nc(SCC(=O)c2ccc(Cl)s2)c2oc3ccccc3c2n1 the “hERG current change (%, negative = inhibition) at 1uM” value was 9.25%. With CCCCC#Cc1ccccc1CC(=O)Nc1ccccc1 the “hERG current change (%, negative = inhibition) at 1uM” value was -4.69%. For NC(=O)C(=O)N/N=C/c1c[nH]c2ccc(Br)cc12, the “hERG current change (%, negative = inhibition) at 1uM” value was 0.718%. With COc1cccc(C(c2nnnn2Cc2ccco2)N2CCN(c3cccc(C)c3C)CC2)c1OC (stereo not drawn) the “hERG current change (%, negative = inhibition) at 1uM” value was -0.822%. With CC(C)NC(=O)CCCc1cn(C)c2ccccc12 the “hERG current change (%, negative = inhibition) at 1uM” value was 17.9%. For O=C(NC(Cc1c[nH]c2ccccc12)C(=O)N/N=C/c1ccc(Br)cc1)c1cccs1 (stereo not drawn), the “hERG current change (%, negative = inhibition) at 1uM” value was 12.5%. For COc1ccc(/C=C2\SC(=O)N(CCCC(=O)Nc3ccc(C(=O)O)cc3)C2=O)cc1OC, the “hERG current change (%, negative = inhibition) at 1uM” value was 10.3%. In the case of O=C(COC(=O)c1ccc(Cl)c(S(=O)(=O)N2CCCC2)c1)NCc1cccs1, the “hERG current change (%, negative = inhibition) at 1uM” value was 3.43%. With COc1ccc(C(=O)NNC(=O)c2cnccn2)cc1[N+](=O)[O-] the “hERG current change (%, negative = inhibition) at 1uM” value was 7.9%. For COC(=O)c1ccc2nc(NC(=O)CN3C(=O)CCC3=O)sc2c1, the “hERG current change (%, negative = inhibition) at 1uM” value was 14.3%. Fc1ccc(-n2c(-c3ccc4c(c3)OCO4)n[nH]c2=S)cc1Cl was tested, and the “hERG current change (%, negative = inhibition) at 1uM” value was 8.94%. With CN(CC(=O)Nc1ccc(F)cc1)C(=O)COC(=O)CSc1ccc(F)cc1 the “hERG current change (%, negative = inhibition) at 1uM” value was 4.05%. With COc1ccc(NS(=O)(=O)c2ccc(N3CCN(CCO)CC3)c([N+](=O)[O-])c2)cc1 the “hERG current change (%, negative = inhibition) at 1uM” value was 19.6%. With CC1CCCCN1Cc1ccc(-c2nnn(CC(=O)NC3CCCCC3)n2)cc1 (stereo not drawn) the “hERG current change (%, negative = inhibition) at 1uM” value was 11.7%. CCOc1ccccc1C1CC(c2cccs2)=NN1S(C)(=O)=O (stereo not drawn) was tested, and the “hERG current change (%, negative = inhibition) at 1uM” value was 4.46%. In the case of COc1cc(C(c2nnnn2C2CCCC2)N2CCN(C(=O)c3ccco3)CC2)cc(OC)c1OC.Cl (stereo not drawn), the “hERG current change (%, negative = inhibition) at 1uM” value was 11.8%. With O=C(N/N=C/c1ccc2c(c1)OCO2)c1cc(-c2ccccc2)nc2ccccc12 the “hERG current change (%, negative = inhibition) at 1uM” value was 19.5%. CC1(C)Cc2c(sc(NC(=O)C(=O)N3CCCC3)c2C(N)=O)CO1 was tested, and the “hERG current change (%, negative = inhibition) at 1uM” value was 0.912%. In the case of Cc1cccc(C(=O)Nc2onc(C)c2C#N)c1, the “hERG current change (%, negative = inhibition) at 1uM” value was 13.8%. For CCN(CC(=O)Nc1ccc(NC(C)=O)cc1)C(=O)c1ccccc1CCc1ccccc1, the “hERG current change (%, negative = inhibition) at 1uM” value was 14.4%. For CN(CC(O)COc1ccc(S(=O)(=O)N2CCOCC2)cc1Cl)C1CCCCC1.Cl (stereo not drawn), the “hERG current change (%, negative = inhibition) at 1uM” value was -0.0085%. For CCOCCc1c(O)nc(SCC(=O)NCc2ccco2)[nH]c1=O, the “hERG current change (%, negative = inhibition) at 1uM” value was 13.6%. In the case of CCOC(=O)N1CCN(C(=O)CCl)CC1, the “hERG current change (%, negative = inhibition) at 1uM” value was 14.1%. For S=C(Nc1ccc2nccnc2c1)N1CCOCC1, the “hERG current change (%, negative = inhibition) at 1uM” value was 5.06%. For COc1ccc(NC(=O)NCc2ccccn2)c(OC)c1, the “hERG current change (%, negative = inhibition) at 1uM” value was 1.77%. For O=C(N/C(=C/c1ccco1)C(=O)N1CCCCCC1)c1ccccc1, the “hERG current change (%, negative = inhibition) at 1uM” value was 7.84%. CSc1ncccc1C(=O)OCC(=O)NC1CCC(C)CC1 (stereo not drawn) was tested, and the “hERG current change (%, negative = inhibition) at 1uM” value was 3.55%. For CCOC(=O)c1cc2c(n(-c3ccc(Cl)cc3)c1=O)CCCC2=O, the “hERG current change (%, negative = inhibition) at 1uM” value was 10.9%. In the case of O=C(CCS(=O)(=O)c1cc(Br)cc2c1N(C(=O)C1CC1)CC2)N1CCN(c2ccccn2)CC1, the “hERG current change (%, negative = inhibition) at 1uM” value was 6.22%. O=C(NC1CCCN(Cc2ccccc2F)C1)c1cccc(N2CCCC2=O)c1 (stereo not drawn) was tested, and the “hERG current change (%, negative = inhibition) at 1uM” value was 8.64%. For COc1ccc(NC2CCCN(C(=O)CCc3cccc(F)c3)C2)cc1 (stereo not drawn), the “hERG current change (%, negative = inhibition) at 1uM” value was 13.6%. With CC(=O)Nc1ccc(N/C(C)=C/C(=O)c2cccnc2)cc1 the “hERG current change (%, negative = inhibition) at 1uM” value was 2.32%. O=C(NCCc1ccccc1)C1CCCN1S(=O)(=O)c1cccc2nsnc12 (stereo not drawn) was tested, and the “hERG current change (%, negative = inhibition) at 1uM” value was 14.5%. For COc1ccc(S(=O)(=O)N2CCCC(C(=O)N3CCN(c4ccccc4)CC3)C2)cc1Cl (stereo not drawn), the “hERG current change (%, negative = inhibition) at 1uM” value was -29.1%. In the case of COc1ccc(CCNc2cc(-c3ccccc3)nc3ncnn23)cc1, the “hERG current change (%, negative = inhibition) at 1uM” value was 4.23%. In the case of CC1=CC(=O)N(c2ccc(C)cc2)C1c1ccc(Cl)cc1 (stereo not drawn), the “hERG current change (%, negative = inhibition) at 1uM” value was 9.79%.
